# This is one part of the list.
# Legend:
# Experiment in all cases: glycan array binding signal (z-score within array); higher = stronger binding
# Conditions in all cases: glycan notation: IUPAC condensed, linker removed
# [1] = biological target: Fuc(a1-2)Gal(b1-4)GlcNAc(b1-3)Gal(b1-4)GlcNAc(b1-3)Gal(b1-4)GlcNAc
# Procedure, shortened: (§1)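 Glycan array data were curated from 3228 arrays in the Consortium for Functional Glycomics database and kept only where the protein sequence was available. Glycan names were converted to IUPAC-condensed notation, and columns mapping to the same glycan were averaged. The binding signal is a within-array Z-score, averaged across arrays of the same protein sequence at different concentrations or buffers and across linkers. Negative Z-scores can be read as non-binding.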
# [2] = biological target: Fuc(a1-2)Gal(b1-4)GlcNAc(b1-3)GalNAc
# Procedure, shortened: as §1
# [3] = biological target: Fuc(a1-2)Gal(b1-4)GlcNAc(b1-3)[Fuc(a1-2)Gal(b1-4)GlcNAc(b1-6)]GalNAc
# Procedure, shortened: as §1
# [4] = biological target: Fuc(a1-2)Gal(b1-4)GlcNAc(b1-6)GalNAc
# Procedure, shortened: as §1
# [5] = biological target: Fuc(a1-2)Gal(b1-4)GlcNAc6S
# Procedure, shortened: as §1
# [6] = biological target: Fuc(a1-2)Gal(b1-4)[Fuc(a1-3)]GlcNAc
# Procedure, shortened: as §1
# [7] = biological target: Fuc(a1-2)Gal(b1-4)[Fuc(a1-3)]GlcNAc(b1-2)Man(a1-3)[Fuc(a1-2)Gal(b1-4)[Fuc(a1-3)]GlcNAc(b1-2)Man(a1-6)]Man(b1-4)GlcNAc(b1-4)GlcNAc
# Procedure, shortened: as §1
# [8] = biological target: Fuc(a1-2)Gal(b1-4)[Fuc(a1-3)]GlcNAc(b1-2)Man(a1-6)[Fuc(a1-2)Gal(b1-4)[Fuc(a1-3)]GlcNAc(b1-2)Man(a1-3)]Man(b1-4)GlcNAc(b1-4)[Fuc(a1-6)]GlcNAc
# Procedure, shortened: as §1
# [9] = biological target: Fuc(a1-2)Gal(b1-4)[Fuc(a1-3)]GlcNAc(b1-2)[Fuc(a1-2)Gal(b1-4)[Fuc(a1-3)]GlcNAc(b1-4)]Man(a1-3)[Fuc(a1-2)Gal(b1-4)[Fuc(a1-3)]GlcNAc(b1-2)Man(a1-6)]Man(b1-4)GlcNAc(b1-4)GlcNAc
# Procedure, shortened: as §1
# [10] = biological target: Fuc(a1-2)Gal(b1-4)[Fuc(a1-3)]GlcNAc(b1-3)Gal(b1-4)[Fuc(a1-3)]GlcNAc
# Procedure, shortened: as §1
# [11] = biological target: Fuc(a1-2)Gal(b1-4)[Fuc(a1-3)]GlcNAc(b1-3)Gal(b1-4)[Fuc(a1-3)]GlcNAc(b1-3)Gal(b1-4)[Fuc(a1-3)]GlcNAc
# Procedure, shortened: as §1
# [12] = biological target: Fuc(a1-2)Gal(b1-4)[Fuc(a1-3)]GlcNAc(b1-3)GalNAc
# Procedure, shortened: as §1
# [13] = biological target: Fuc(a1-2)Gal(b1-4)[Fuc(a1-3)]GlcNAc(b1-3)[Neu5Ac(a2-6)Gal(b1-4)GlcNAc(b1-6)]Gal(b1-4)Glc
# Procedure, shortened: as §1
# [14] = biological target: Fuc(a1-2)Gal6S(b1-3)GlcNAc
# Procedure, shortened: as §1
# [15] = biological target: Fuc(a1-2)Gal6S(b1-3)GlcNAc6S
# Procedure, shortened: as §1
# Fuc(a1-2)Gal6S(b1-4)Glc = biological target: Fuc(a1-2)Gal6S(b1-4)Glc
# Procedure, shortened: as §1
# [16] = biological target: Fuc(a1-2)Gal6S(b1-4)Glc6S
# Procedure, shortened: as §1
# [17] = biological target: Fuc(a1-2)Gal6S(b1-4)GlcNAc
# Procedure, shortened: as §1
# Fuc(a1-2)[Gal(a1-3)]Gal = biological target: Fuc(a1-2)[Gal(a1-3)]Gal
# Procedure, shortened: as §1
# [18] = biological target: Fuc(a1-2)[Gal(a1-3)]Gal(b1-3)GalNAc
# Procedure, shortened: as §1
# [19] = biological target: Fuc(a1-2)[Gal(a1-3)]Gal(b1-3)GlcNAc
# Procedure, shortened: as §1
# [20] = biological target: Fuc(a1-2)[Gal(a1-3)]Gal(b1-3)GlcNAc(b1-2)Man(a1-3)[Fuc(a1-2)[Gal(a1-3)]Gal(b1-3)GlcNAc(b1-2)Man(a1-6)]Man(b1-4)GlcNAc(b1-4)GlcNAc
# Procedure, shortened: as §1
# [21] = biological target: Fuc(a1-2)[Gal(a1-3)]Gal(b1-3)GlcNAc(b1-2)Man(a1-3)[Fuc(a1-2)[Gal(a1-3)]Gal(b1-3)GlcNAc(b1-2)Man(a1-6)]Man(b1-4)GlcNAc(b1-4)[Fuc(a1-6)]GlcNAc
# Procedure, shortened: as §1
# [22] = biological target: Fuc(a1-2)[Gal(a1-3)]Gal(b1-3)GlcNAc(b1-3)GalNAc
# Procedure, shortened: as §1
# [23] = biological target: Fuc(a1-2)[Gal(a1-3)]Gal(b1-4)Glc
# Procedure, shortened: as §1
# [24] = biological target: Fuc(a1-2)[Gal(a1-3)]Gal(b1-4)GlcNAc
# Procedure, shortened: as §1
# [25] = biological target: Fuc(a1-2)[Gal(a1-3)]Gal(b1-4)GlcNAc(b1-2)Man(a1-3)[Fuc(a1-2)[Gal(a1-3)]Gal(b1-4)GlcNAc(b1-2)Man(a1-6)]Man(b1-4)GlcNAc(b1-4)GlcNAc
# Procedure, shortened: as §1
# [26] = biological target: Fuc(a1-2)[Gal(a1-3)]Gal(b1-4)GlcNAc(b1-2)Man(a1-3)[Fuc(a1-2)[Gal(a1-3)]Gal(b1-4)GlcNAc(b1-2)Man(a1-6)]Man(b1-4)GlcNAc(b1-4)[Fuc(a1-6)]GlcNAc
# Procedure, shortened: as §1
# [27] = biological target: Fuc(a1-2)[Gal(a1-3)]Gal(b1-4)GlcNAc(b1-3)GalNAc
# Procedure, shortened: as §1
# [28] = biological target: Fuc(a1-2)[Gal(a1-3)]Gal(b1-4)GlcNAc(b1-6)GalNAc
# Procedure, shortened: as §1
binder,measurement,setting,value
"PitA (Streptococcus oralis), G3F8D8 (protein) MNIRFDFKKVQIIARRLVTLLAILFLCAPISLLNADSTTEPQTTLHKTITPISGQDDKYELSLDITSKLGTETQTDPLDVVLVADLSGSMQNQDVQSFDGRTISRIDALKNTLRGTNGRKGLIDTILSNSNNRLSMVGFGGKIDNKKVDQYWDGNKWRLFRPYWPYERMTKYYDGVSPWDDANTILGWSNNARAAKTAVYNMSIAGGNSIGTESGIGTGTNIGAGLTLANQLMGSARSNAKKVVILLSDGFANMVYDANGYTIYNYNNEDPNIETAPQWFWDRLNNNLNSLSYSLAPTLDGFYSIKFRYSNNVDSITSLQYYMRQHNASIPNEIFSANDEDQLRDSFKDITDKILPLGIHHVSIKDVLSKYVQLLPNGSSEFRVVKEKDGSSEILIENQVTFDTKTTSEGLVEVTAKFSPNYSLEDGARYVLKFTVTSSQEALDAIAGDKKLEAGDAEGSDVNKLYSNKGASVTYSYGIGNSQTKTKEYSDNPTFKPSDPLTVPVEVEWQGVTGARTVITADQPSNVELKLVQKNKNGGSDNQDYRKTNVNVSKNVSNETRNFEKVAKGYQYDLIAPDVPAFTKEIKNVGTESKPSFKVIYKQLPSLTIKKVLEAENNLNKEFRIKVKLTSPDSKPLNGTFGEITVVNGEAEIRVEKRKRWEGILSYLPRGTHYKVEEEAASTNGYHVTYENQEGDLNKDETSIVTNHKLPSLSVTKKVTGVFANLLKSFKITINIRDAQNSPLNGTYTATVNNKRTPLQFTNGRASIDLNKDQTIKIYGLPLDSHYTVEEESNSSRGYQVSYENQEGKLDGDKSATVTNNKNSVPETGVDFLSSTLMLGIILPLGGIFFTILLGYLVVHRRK",glycan array binding signal (z-score),[1],-0.384
same,glycan array binding signal (z-score),[2],0.053
same,glycan array binding signal (z-score),[3],2
same,glycan array binding signal (z-score),[4],0.185
same,glycan array binding signal (z-score),[5],-0.17
same,glycan array binding signal (z-score),[6],-0.371
same,glycan array binding signal (z-score),[7],0.076
same,glycan array binding signal (z-score),[8],1.99
same,glycan array binding signal (z-score),[9],2.19
same,glycan array binding signal (z-score),[10],-0.469
same,glycan array binding signal (z-score),[11],0.844
same,glycan array binding signal (z-score),[12],7.27
same,glycan array binding signal (z-score),[13],-0.634
same,glycan array binding signal (z-score),[14],-0.656
same,glycan array binding signal (z-score),[15],0.003
same,glycan array binding signal (z-score),Fuc(a1-2)Gal6S(b1-4)Glc,-0.191
same,glycan array binding signal (z-score),[16],0.561
same,glycan array binding signal (z-score),[17],-0.316
same,glycan array binding signal (z-score),Fuc(a1-2)[Gal(a1-3)]Gal,-0.728
same,glycan array binding signal (z-score),[18],-0.394
same,glycan array binding signal (z-score),[19],-0.561
same,glycan array binding signal (z-score),[20],-0.478
same,glycan array binding signal (z-score),[21],0.49
same,glycan array binding signal (z-score),[22],-0.049
same,glycan array binding signal (z-score),[23],-0.267
same,glycan array binding signal (z-score),[24],-0.451
same,glycan array binding signal (z-score),[25],0.369
same,glycan array binding signal (z-score),[26],1.33
same,glycan array binding signal (z-score),[27],-0.491
same,glycan array binding signal (z-score),[28],0.131

# Source: the supplement of paper PMC8728848
